The whole screen tested about 45,000 compounds, of which about 65 (0.1%) were called active. Calls come from the whole dose curve; as a rule, active = well fitted activation curve with a large enough effect; inconclusive = small, poorly fitted or top-dose-only effect; inactive = no such curve, though single readings can be large or run the other way. Some of the results follow.

Sequence of UniProt P54803 (P54803 whole entry, looked up): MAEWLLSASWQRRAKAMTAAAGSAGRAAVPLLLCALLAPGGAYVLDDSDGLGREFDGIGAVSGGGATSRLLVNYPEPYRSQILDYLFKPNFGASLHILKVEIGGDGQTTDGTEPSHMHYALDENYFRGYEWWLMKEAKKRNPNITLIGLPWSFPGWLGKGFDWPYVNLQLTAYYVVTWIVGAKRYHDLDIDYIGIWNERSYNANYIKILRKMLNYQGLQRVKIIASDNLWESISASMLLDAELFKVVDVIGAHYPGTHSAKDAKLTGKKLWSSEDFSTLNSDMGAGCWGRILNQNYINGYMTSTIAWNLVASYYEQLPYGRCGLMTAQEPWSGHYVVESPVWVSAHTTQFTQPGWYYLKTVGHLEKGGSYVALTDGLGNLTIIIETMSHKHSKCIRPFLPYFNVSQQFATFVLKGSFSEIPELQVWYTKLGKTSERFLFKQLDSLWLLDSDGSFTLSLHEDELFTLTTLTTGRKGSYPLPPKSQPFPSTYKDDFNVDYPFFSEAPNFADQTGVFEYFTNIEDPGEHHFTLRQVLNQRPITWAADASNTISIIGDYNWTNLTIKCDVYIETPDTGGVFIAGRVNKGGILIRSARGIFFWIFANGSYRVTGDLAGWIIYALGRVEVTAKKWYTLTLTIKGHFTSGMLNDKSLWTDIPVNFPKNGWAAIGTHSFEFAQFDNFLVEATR

In this experiment the target is Galactocerebrosidase (Homo sapiens) (UniProt P54803). In words: A Novel Cell-Based Assay to Identify Small Molecules for B -Galactocerebrosidase. Note: 0% is about no effect; nearly all actives have a fitted effect of over 65% in size. The note with it: 145M-Twi-hGALC-G270D cells, HMU-beta-Gal fluorescence, 48 h; series mostly up to 57.5 µM; activation: at the top concentration. In outline:
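qHTS, 1536-well; 145M-Twi-hGALC-G270D cells (WT line also made) in DMEM/F12 + 10% FBS; compound incubation on live cells; HMU-β-gal 0.1 mM final, pH 5.2, NaTC; carbonate stop; fluorescence increase = enhanced residual activity.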
Turning to `Nc1c2c(nc3ccccc13)CCCC2`, the “activation” value is inactive: -15.8%.
Under `CCCCC(CC)COC(=O)C(C#N)=C(c1ccccc1)c1ccccc1` (stereo not drawn) stands inactive: -11.9%; under `CC(=O)c1ccc(N2CCN(C(=O)NCc3noc4ccc(C)cc34)CC2)cc1`, inactive: -8.18%; under `COC(=O)CCc1sc(Nc2ccc(OC)cc2)nc1-c1ccc(OC)cc1`, inactive: -9.27%.
As for `Cc1ccccc1NC(=O)CC1C(=O)NCCN1C(=O)c1cccc(Cl)c1` (stereo not drawn), the “activation” value was inactive: -10.7%.
For the compound `Cc1noc(-c2ccccc2OCC(=O)Nc2cccc([N+](=O)[O-])c2)n1`, the “activation” value was inactive: -7.92%.
Next, `CCN1c2ccccc2-c2nc(SCC(=O)Nc3ccc(C)c(Cl)c3)ncc2S1(=O)=O`: inactive: -2.17%; `CCOC(=O)c1ccccc1NC(=O)CSc1nc2ncccc2[nH]1`: inactive: -3.65%.
Turning to `COc1ccc(-c2nnn3c2nc(N2CCCC(C)C2)c2ccccc23)cc1` (stereo not drawn), the “activation” value was inactive: -0.473%.
For the compound `Cc1ccc(C)c(N(C)C(=O)C2CCN(S(=O)(=O)c3cccc4nsnc34)CC2)c1`, the “activation” value was inactive: -8.43%.
Under `CC(=O)c1cc(C(=O)Nc2cccc(C)c2)c2ccccn12` stands inactive: -12.7%; under `COc1ccc(N2CCN(C(=O)CCS(=O)(=O)c3cc4c(cc3Cl)NC(=O)CO4)CC2)cc1`, inactive: -12.8%; under `CCOC(=O)C1CCCN(S(=O)(=O)c2ccc3[nH]c(=O)ccc3c2)C1` (stereo not drawn), inactive: -7.56%.
Under `Cc1ccc(S(=O)(=O)NCc2nc3nc(C)cc(C)n3n2)c(C)c1` stands inactive: 5.26%; under `O=c1c2sc3ccccc3c2n(Cc2ccccc2)c(=O)n1Cc1ccccc1`, inactive: -8.89%; under `CCOc1ccc(CNC(=O)c2ccc3nc(Cc4ccc(OC)cc4)oc3c2)cc1OC`, inactive: -15.3%.
Next, `Cc1ccc2c(CNCCc3ccc(Cl)cc3)c(C(=O)O)n(Cc3ccc(F)cc3)c2c1`: inactive: -8.67%.
`CCOC(=O)c1ccc(NC(=O)CC2C(=O)N(c3ccccc3)C(=O)N2Cc2cccs2)cc1` (stereo not drawn): the “activation” value was inactive: -19.4%.
Under `Cc1ccc(S(=O)(=O)c2[nH]c(-c3ccccc3)nc2SCC(=O)O)cc1` stands inactive: -9.04%; under `COc1ccc(N2CCN(CC(O)COc3ccc(C(C)(C)C)cc3)CC2)cc1` (stereo not drawn), inactive: -10.3%; under `CC(C)Cc1nn2c(=O)cc(COC(=O)c3ccc(NC(=O)c4cccs4)cc3)nc2s1`, inactive: -8.9%.
Under `CCN(C(=O)Cc1c(C(=O)O)[nH]c2ccccc12)c1ccc(OC)cc1` stands inactive: -11.7%.
Turning to `CCC(=O)N1c2ccccc2CC1C(=O)N1CCN(c2ccccc2)CC1` (stereo not drawn), the “activation” value is inactive: 11.7%.
Under `Cc1ccc(Cl)cc1NC(=O)c1ccc(-c2nc(CSc3ccccc3)c(C)o2)cc1` stands inactive: -25.1%; under `O=S(=O)(NCCc1csc(-c2ccc(F)cc2)n1)c1ccc(Cl)cc1`, inactive: -14.3%; under `O=c1c2c3c(sc2nnn1Cc1ccc(Br)cc1)CCCC3`, inactive: -8.79%.
`CCOC(=O)c1ccc(NC(=O)CCc2c(C)nc3c(c(C)nn3C)c2C)cc1`: the “activation” value is inactive: -17.3%.
Take `CCOc1ccccc1NC(=O)Cn1c(=O)ccc2cc(S(=O)(=O)N3CCC(C)CC3)ccc21`: the “activation” value was inactive: -11.1%.
Under `CC(=O)c1ccc(N2CCN(C(=O)C3CCN(S(=O)(=O)c4cccc5nonc45)CC3)CC2)cc1` stands inactive: -5.84%.
Under `CC1CCCCN1CCCOC(=O)c1ccc(OC2CCCCC2)cc1` (stereo not drawn) stands inactive: -12.2%; under `O=C(c1cc2ccccc2oc1=O)N(Cc1cccc(Cl)c1)C1CCS(=O)(=O)C1` (stereo not drawn), inactive: -9.92%; under `COc1ccc(-c2cnc(C)o2)cc1S(=O)(=O)Nc1ccc(C)c(F)c1`, inactive: 5.6%.
For `Cc1ccc(CN2CCSc3ccc(C(=O)N4CCN(c5cccc(C)c5C)CC4)cc32)cc1`, the “activation” value was inactive: -15.1%.
Next, `O=C(CSc1nccn1Cc1ccc(Cl)cc1)NC1CCCC1`: inactive: -20%.
Next, `Cc1ccc(OCCCn2c(C3CC(=O)N(c4cccc(Cl)c4)C3)nc3ccccc32)c(C)c1` (stereo not drawn): inactive: -26%.
Under `CCOC(=O)C1CCN(C(=O)C2COc3ccccc3C2)CC1` (stereo not drawn) stands inactive: -26.1%; under `CC(=O)N1CCc2c(sc3c2c(=O)n(Cc2ccccc2)c(=O)n3Cc2ccccc2F)C1`, inactive: 0.434%; under `O=C(Cc1cccs1)Nc1c(C(=O)Nc2ccc(F)cc2)oc2ccccc12`, inactive: -11%.
In the case of `CC(C)CN1CCc2nc(Nc3ccc(F)cc3F)ncc2C1`, the “activation” value was inactive: -5.25%.
Under `Cc1ccccc1OCC(O)CO` (stereo not drawn) stands inactive: -4.12%; under `COc1cc(/C=C(\C#N)c2nc3ccccc3[nH]2)ccc1OCc1ccccc1F`, inactive: 6.13%; under `Cc1ccc(-c2onc(C)c2C)cc1S(=O)(=O)N1CCOc2ccc(Cl)cc21`, inactive: -5.44%.
Under `COc1ccc(-n2c(SCC(N)=O)nc3c(oc4ccccc43)c2=O)cc1` stands inactive: -3.35%; under `CC(C)(C)OC(=O)N1CCc2nc(N3CCN(c4ncccn4)CC3)ncc2C1`, inactive: -13.9%.
As to `CCS(=O)(=O)N1CCc2cc(C(=O)N3CCN(c4ccccc4OC)CC3)ccc21`, the “activation” value is inactive: -9.86%.
In the case of `COc1ccc(CCC(=O)NCc2ccc3c(c2)CCN3C(=O)c2ccccc2)cc1`, the “activation” value is inactive: -20.7%.
Under `CCC(Sc1nc(-c2ccc(F)cc2)nc2c1Cc1c(CO)cnc(C)c1O2)C(=O)Nc1ccc(F)cc1` (stereo not drawn) stands inactive: -4.57%.
Regarding `COc1c(Cl)cc(C(=O)N(Cc2ccccc2F)C2CCS(=O)(=O)C2)cc1Cl` (stereo not drawn), the “activation” value is inactive: -12%.
Consider `COc1ccc(C(CNC(=O)c2ccc(F)cc2)N2CCCC2)cc1` (stereo not drawn), for which the “activation” value is inactive: 0.76%.
Under `Cn1c(=O)c2c(nc(SCC(=O)Nc3ccc(F)cc3)n2Cc2ccccc2F)n(C)c1=O` stands inactive: -6.53%.
Take `Cc1cc(C)cc(NC(=O)N2CCC(CN3CCCCCC3)CC2)c1`: the “activation” value is inactive: 1.71%.
With `CCOc1ccc2nc(NC(=O)c3nc(SCc4ccccc4C)ncc3Cl)sc2c1`, the “activation” value is inactive: 17.4%.
Under `CCC(=O)N1c2ccc(S(=O)(=O)CCC(=O)N3CCN(c4cc(C)ccc4C)CC3)cc2CC1C` (stereo not drawn) stands inactive: -7.02%; under `CCCSc1ncc(Cl)c(C(=O)Nc2c(C(=O)c3ccc(C)cc3)oc3ccccc23)n1`, inactive: -7.63%.
For `O=C(CSc1nc2nccnc2c(=O)n1CCc1c[nH]c2ccccc12)Nc1ccccc1`, the “activation” value was inactive: 12.3%.
Take `COC(=O)c1c(NC(=O)/C(C#N)=C/c2ccc(OC)cc2)sc2c1CCC2`: the “activation” value was inactive: -17.7%.
With `O=C1CN(/N=C/c2ccc([N+](=O)[O-])o2)C(=O)N1`, the “activation” value is inactive: -7.33%.
Next, `O=C(NC1CC(=O)N(c2ccccc2)C1)C(c1ccccc1)c1ccccc1` (stereo not drawn): inactive: -4.31%; `CCc1ccc(C(=O)c2cn(CC(=O)Nc3cc(OC)ccc3OC)c3nc(C)ccc3c2=O)cc1`: inactive: 3.27%.
Under `Cc1c(CCNC(=O)c2ccc(Br)o2)sc2nc(-c3ccc(Cl)cc3)nn12` stands inactive: 7.79%; under `Cc1ccc(C(=O)N2CCCCC2)cc1NC(=O)c1nsc2ccccc12`, inactive: -12.1%; under `COc1ccc(S(=O)(=O)N2CCC(N3CCN(Cc4ccc(F)cc4)C(=O)C3=O)CC2)cc1`, inactive: -21.4%.
Next, `CC1=C(CC(=O)O)c2cc(F)ccc2/C1=C\c1ccc(S(C)(=O)=O)cc1`: inactive: -7.28%.

For the origin of these results see PubChem BioAssay AID1159614 (National Center for Advancing Translational Sciences (NCATS), 2016).
